According to PubChem BioAssay AID686979 (National Center for Advancing Translational Sciences (NCATS), 2013):
“And” between values parts separate entries of the source, which are not always exact repeats. Equal entries are not always repeated. About 50,000 (12%) of roughly 420,000 compounds were called active. The inconclusive results got no clear call from the source; some entries with a clear call stand among them for comparison. The call rests on the fitted dose curve; in most records, active means well fitted inhibition curve with a large enough effect; inconclusive means small, poorly fitted or top-dose-only effect; inactive means flat fitted curve, though single readings scatter. Potencies of inconclusive entries are doubtful fits and often do not repeat.

Assay: qHTS for Inhibitors of human tyrosyl-DNA phosphodiesterase 1 (TDP1): qHTS in cells in presence of CPT; further: nearly all actives have a fitted effect of over 55% in size
Conditions: chicken DT40 Tdp1-/-;hTDP1 cells + 20 nM CPT, ATP luminescence, 48 h; activity change, negative = growth inhibition: at 46.2 µM (top of the series) unless noted
How it was run: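 Cell growth measured by CellTiter-Glo luminescence after a minimum 48 h, 37 C compound exposure with 20 nM CPT in Tdp1-knockout DT40 cells stably expressing hTDP1, seeded 400/well; qHTS titration format.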
On the % scale 0 is the no-effect control and ±100 the full control effect; potency means the concentration at half of the fitted maximal effect; tags describe the fitted curve by direction and shape.

Compound	Potency	activity change, negative = growth inhibition
COc1cccc(C(N)c2nc(-c3cc(F)cc(F)c3)cs2)c1 (stereo not drawn)	inconclusive: 25.9 µM [inhibitor, single point]	
CCOC(=O)N1CCN(C(=O)c2nn(C)c3c2CSc2ccccc2-3)CC1	inconclusive: 18.4 µM [inhibitor, single point]	
COc1ccc(C=C2CCc3ccccc3C2=O)cc1	inconclusive: 23.1 µM [inhibitor, single point]	
Cc1ccc([C@H]2N[C@]3(CCCN(Cc4ccc(Br)cc4)C3=O)[C@H]3C(=O)N(Cc4ccccc4)C(=O)[C@@H]23)cc1	active: 20.6 µM	
COc1ccc(CNC(=O)c2cc3c(=O)[nH]c4ccccc4c3n2C)c(OC)c1	inconclusive: 6.51 µM [inhibitor, single point]	
CCOC(=O)c1c(C)[nH]c(C(=O)NCCN2CCOCC2)c1C	inactive	
Cc1ccc(SCC(=O)N(Cc2nc(-c3ccccc3)no2)C(C)C)cc1	active: 18.4 µM	
Cc1[nH]c(=O)c(C#N)c2c1CSC(C)(C)C2	inactive	
Cc1ccc2c(c1)N(C(=O)N1CCC(C(=O)NCc3cccs3)CC1)CC(C)O2 (stereo not drawn)	inconclusive: 29.1 µM [inhibitor, single point]	
NNC(=O)CNC(c1ccccc1)c1cc(Br)ccc1NC(=O)CCN1CCOCC1 (stereo not drawn)	active: 23.1 µM	
Cc1ccc(C(=O)OCCOc2cccc(Cl)c2)cc1S(=O)(=O)N1CCOCC1	inconclusive: 25.9 µM [inhibitor, single point]	
O=C(CN1C(=O)NC2(CCCCC2)C1=O)Nc1ccc2[nH]c(=O)[nH]c2c1	inactive	
CC(=O)Nc1ccc(NC(=O)C2CCN(C(=O)c3cccs3)CC2)cc1	active: 23.1 µM	
Cc1nn2c(=O)cc(COC(=O)C(c3ccccc3)c3ccccc3)nc2s1	inconclusive: 29.1 µM [inhibitor, single point]	
CC(=O)NC(C)(c1ccccc1)c1nc(-c2cccc(C#N)c2)cs1 (stereo not drawn)	inconclusive: 29.1 µM [inhibitor, single point]	
COc1ccc(CCNC(=O)NC23CC4CC(CC(C4)C2)C3)cc1	inconclusive: 18.4 µM [inhibitor, single point]	
CC(=O)N1c2ccc(S(=O)(=O)NCCC(=O)NCCc3ccc(Cl)cc3)cc2CC1C (stereo not drawn)	active: 16.4 µM	
C=CCn1c(SCC(=O)Nc2sccc2C(N)=O)nc2sc(CC)cc2c1=O	inconclusive: 20.6 µM [inhibitor, single point]	
CC(Oc1ccccc1)C(=O)N/N=C/c1ccccn1 (stereo not drawn)	inconclusive: 16.4 µM [inhibitor, single point]	
COc1ccc2cc(CCOC3CCCCO3)ncc2c1 (stereo not drawn)	inactive	
CC(NC(=O)CN1C(=O)COc2ccc(Cl)cc21)c1ccccc1 (stereo not drawn)	inactive	
COc1ccc(CCNC(=O)CCCn2c(=O)c3ccccc3n(CC(=O)Nc3ccc(C)cc3Cl)c2=O)cc1OC	inconclusive: 29.1 µM [inhibitor, single point]	
Cc1ccc(C(=O)c2ccc(N3CCN(C)CC3)c([N+](=O)[O-])c2)cc1	active: 18.4 µM	

Compound	Potency	activity change, negative = growth inhibition
Cc1ccc(NC(=O)COC(=O)c2cc(=O)c3cc(F)ccc3o2)cc1	inactive	
COc1ccc(Cc2noc(CN(C)CCN3CCc4ccccc4C3)n2)cc1OC	inconclusive: 29.1 µM [inhibitor, single point]	
COc1ccc(Cl)cc1NC(=O)NCc1noc2ccccc12	inconclusive: 29.1 µM [inhibitor, single point]	
Cc1ccccc1C(=O)NC(=S)Nc1cccc(NC(=O)C(C)C)c1	inactive	
CCCCCCCCCC(=O)NNC(=O)c1c(O)c2ccccc2n(CCC)c1=O	inconclusive: 29.1 µM [inhibitor, single point]	
Cc1ccc(-c2c(C(=O)N(C)Cc3ccccc3)oc(=O)c3ccccc23)cc1	inconclusive: 11.6 µM [inhibitor, single point] and inconclusive: 29.1 µM [inhibitor, single point]	
Cc1cccc(N(CC(=O)NCCSc2ccc(Cl)cc2)S(C)(=O)=O)c1C	inconclusive: 18.4 µM [inhibitor, single point]	
O=c1cc(-c2cccc(F)c2)[nH]c2ccccc12	active: 1.03 µM	
COc1ccc(-c2csc3ncnc(N4CCN(S(=O)(=O)c5cccc(F)c5)CC4)c23)cc1	inconclusive: 23.1 µM [inhibitor, single point]	
CCOC(=O)CN1C(=O)C(=O)c2cccc(C)c21	inconclusive: 18.4 µM [inhibitor, single point]	
COc1ccc(C(=O)c2c(C(F)(F)F)oc3c2C(=O)c2ccccc2C3=O)cc1OC	active: 2.31 µM	
CCN1CCN(Cc2nnc(-c3ccccc3)o2)CC1	inconclusive: 23.1 µM [inhibitor, partial curve]	
NC(=O)NCCC[C@H](N)C(=O)O	inactive	
CCOC(=O)C1CCCN(C(=O)c2ccc(C)c([N+](=O)[O-])c2)C1 (stereo not drawn)	inconclusive: 32.6 µM [inhibitor, single point]	
COc1ccc(C(=O)N2CCN(c3ccc(C)cc3)CC2)cc1OC		inconclusive: -33.6% [inhibitor]
CC(C)NS(=O)(=O)c1ccc(NC(=O)C(C)Oc2ccc(C(=O)c3ccccc3)cc2)cc1 (stereo not drawn)	active: 23.1 µM	
CC(=O)CCc1oc2ccccc2c1-c1ccccc1	inactive	
Cc1ccccc1C(=O)NC1CCN(CC(=O)Nc2ccccc2Cl)CC1	inconclusive: 16.4 µM [inhibitor, single point]	
COc1ccc(CCNC(=O)CN(c2cc(C)cc(C)c2)S(=O)(=O)c2c(C)noc2C)cc1OC	inconclusive: 25.9 µM [inhibitor, single point]	
O=c1[nH][nH]c2c1C(c1ccc(Cl)c(Cl)c1)OC(CCc1ccccc1)C2 (stereo not drawn)	inactive	
COCCN1C(=O)/C(=C/c2ccc(OCc3ccc(C(=O)O)cc3)c(OC)c2)SC1=Nc1ccccc1	active: 23.1 µM	
O=C(N/C(=C\c1ccc(Br)cc1)c1nc2ccccc2[nH]1)c1ccco1	inconclusive: 29.1 µM [inhibitor, single point]	
CCO[C@H]1OC(C(=O)N2CCN(Cc3ccc4c(c3)OCO4)CC2)=C[C@@H](c2ccccc2)[C@@H]1CCCO	inconclusive: 23.1 µM [inhibitor, single point]	

Compound	Potency	activity change, negative = growth inhibition
O=C(COC(=O)c1ccc2c(c1Cl)C(=O)c1ccccc1C2=O)NC1CC1	inconclusive: 11.6 µM [inhibitor, partial curve]	
O=C(CN1C(=O)/C(=C/c2ccccc2F)Sc2ccccc21)NCC1CCCO1 (stereo not drawn)	inconclusive: 23.1 µM [inhibitor, single point]	
C/C(=N\N1C(C)CCCC1C)c1ccccc1O (stereo not drawn)	inconclusive: 20.6 µM [inhibitor, partial curve, poor fit]	
COc1ccc(CNC(=O)CCNS(=O)(=O)c2cc(Br)cnc2N)cc1	active: 20.6 µM	
O=C(Nc1ccc(Cl)cc1Cl)c1ccc2c(c1)OCCO2	inactive	
CCOc1ccc(Nc2nc(N)c([N+](=O)[O-])c(NCc3ccccc3)n2)cc1	inconclusive: 23.1 µM [inhibitor, single point]	
COc1ccc([C@H]2/C=C\CN(C(=O)c3ccc(C)cc3)[C@@H](C)C(=O)N2Cc2ccc(F)cc2)cc1	inconclusive: 29.1 µM [inhibitor, single point]	
CCCC(=O)Nc1ccc(NC(=S)NC(=O)c2ccccc2[N+](=O)[O-])cc1	inconclusive: 18.4 µM [inhibitor, single point]	
CC1CCCCC1NC(=O)/C(C#N)=C/c1ccc2c(c1)OCCO2 (stereo not drawn)	inconclusive: 29.1 µM [inhibitor, partial curve, poor fit]	
Cc1ccc(NC(=O)C2CCN(C(=O)c3cnn(-c4ccccc4)c3-n3cccc3)CC2)cc1C	active: 18.4 µM	
O=C(CCS(=O)(=O)c1nc(-c2ccc3c(c2)OCO3)cc(C(F)(F)F)n1)Nc1ccc(F)cc1F	inconclusive: 18.4 µM [inhibitor, single point]	
Cc1ccc(-n2ncc(C(=O)N3CCN(C(=O)c4ccco4)CC3)c2C2CCN(C(=O)OC(C)(C)C)CC2)cc1	inactive	
CCS(=O)(=O)c1ncc(Cl)c(C(=O)Nc2c(C(=O)c3ccc(C)cc3)oc3ccccc23)n1	active: 1.64 µM	
CC(C)c1ccc(NC(=O)CCNS(=O)(=O)c2ccc3c(c2)oc(=O)n3C)cc1	inactive	
C=C(C)Cn1c(SCC(=O)Nc2cccc(C)c2)nc2sc3c(c2c1=O)CCCC3	active: 9.2 µM	
C=CCNC(=O)c1c(CS(=O)(=O)c2ccccc2)noc1C(=O)NCc1ccccc1	inactive	
CCOC(=O)c1cc(CC)sc1NC(=O)CC1SC(N)=NC1=O (stereo not drawn)	inactive	
COc1ccc(OC)c(S(=O)(=O)NCC(c2ccco2)N2CCc3ccccc32)c1 (stereo not drawn)	inconclusive: 16.4 µM [inhibitor, single point]	
O=C(CN1CCCN(Cc2cccc(F)c2)S1(=O)=O)Nc1ccc2c(c1)OCCO2	inconclusive: 29.1 µM [inhibitor, single point]	
CC1=C/C(=C(/c2cc(C)c(O)c(Br)c2)c2ccccc2S(=O)(=O)O)C=C(Br)C1=O	inconclusive: 20.6 µM [inhibitor, single point]	
COc1cc(CCC(=O)Nc2cccc(C(F)(F)F)c2)cc(OC)c1OC	inconclusive: 23.1 µM [inhibitor, partial curve]	
CC(C)C[C@H]1CNC(=O)C(=O)N1C[C@@H]1CCCN1C[C@H](Cc1ccccc1)N1C[C@H](CC(C)C)N(CCc2ccccc2)C(=O)C1=O	inconclusive: 29.1 µM [inhibitor, single point]	
